The supplement of paper PMC12582362
Counter-ions that a name gives are not always drawn. The whole screen tested about 1,500 compounds, of which about 30 (2%) showed activity.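 The calls were made as follows: active = robust z-score below -2; a few such results were not called.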 This is one part of the list.

Each compound was assayed on optoTopBP1 Flp-In 293 T-REx (HEK293) cells (assay: light-induced TopBP1 condensate (nuclear foci) count, plate-normalised robust z-score vs non-control wells; higher = more TopBP1 condensates (negative = condensation inhibitor), active = hit call of the paper). Conditions: 10 µM; incubation time 2 h.

Structure (SMILES)	light-induced TopBP1 condensate (z-score)
CCN1CC(CCN2CCOCC2)C(c2ccccc2)(c2ccccc2)C1=O (stereo unspecified) [Doxapram hydrochloride]	inactive: -0.469
O=C(c1cc(O)c(O)c(O)c1)c1ccc(O)c(O)c1O [Exifone]	inactive: 0.683
CCCCNC(=O)NS(=O)(=O)c1ccc(C)cc1 [Tolbutamide]	inactive: 0.285
O=C(O)c1cc(-c2ccc(F)cc2F)ccc1O [Diflunisal]	inactive: -0.657
CCOC(=O)OC(C)OC1=C(C(=O)Nc2ccccn2)N(C)S(=O)(=O)c2ccccc21 (stereo unspecified) [Ampiroxicam]	inactive: -1.41
CC(=O)[C@H]1CC[C@H]2[C@@H]3C[C@H](C)C4=CC(=O)CC[C@]4(C)[C@H]3[C@@H](O)C[C@]12C [Medrysone]	inactive: 0.305
CCOc1ccccc1OCCN[C@H](C)Cc1ccc(OC)c(S(N)(=O)=O)c1 [(R)-Tamsulosin hydrochloride]	inactive: 0.258
CCn1cc(C(=O)O)c(=O)c2cnc(N3CCCC3)nc21 [Piromidic acid]	inactive: -0.517
O=S(=O)(O)CCS [Mesna]	inactive: 0.139
CC(C)Nc1ncccn1 [Isaxonine]	inactive: 1.54
OCCN1C[C@H](O)[C@@H](O)[C@H](O)[C@H]1CO [Miglitol]	inactive: 0.315
CC(=O)Oc1cc2c(s1)CCN(C(C(=O)C1CC1)c1ccccc1F)C2 (stereo unspecified) [Prasugrel]	inactive: -0.305
Cn1cnc([N+](=O)[O-])c1Sc1ncnc2[nH]cnc12 [Azathioprine]	inactive: 0.922
CC(C)C(=O)Nc1ccc([N+](=O)[O-])c(C(F)(F)F)c1 [Flutamide]	inactive: -0.417
O=C(O)CCCC[C@@H]1SC[C@@H]2NC(=O)N[C@@H]21 [Biotin]	inactive: 0.446
COCC(=O)Nc1c(I)c(C(=O)NCC(O)CO)c(I)c(C(=O)N(C)CC(O)CO)c1I (stereo unspecified) [Iopromide]	inactive: -0.299
CCOC(=O)Nc1ccc(NCc2ccc(F)cc2)nc1N [Flupirtine]	inactive: 0.863
CC1COc2c(N3CCN(C)CC3)c(F)cc3c(=O)c(C(=O)O)cn1c23 (stereo unspecified) [Ofloxacin]	inactive: 0.0516
CC(C)=CCC1C(=O)N(c2ccccc2)N(c2ccccc2)C1=O [Feprazone]	inactive: 1.11
C[C@H](CCC(=O)O)[C@H]1CC[C@H]2[C@@H]3CC[C@@H]4C[C@H](O)CC[C@]4(C)[C@H]3CC[C@]12C [Lithocholic acid]	inactive: -0.199
N[C@@H](CSCCCO)C(=O)O [Fudosteine]	inactive: 0.24
CC(=O)SCC(Cc1ccccc1)C(=O)NCC(=O)OCc1ccccc1 (stereo unspecified) [Racecadotril]	inactive: -1.22
COC(=O)C1=C(C)NC(C)=C(C(=O)OC(C)C)C1c1cccc2nonc12 (stereo unspecified) [Isradipine]	inactive: 1.1

Structure (SMILES)	light-induced TopBP1 condensate (z-score)
O=C(Oc1cccc2cccnc12)c1ccccc1 [Benzoxiquine]	inactive: -0.428
CN1CCC(OC(c2ccccc2)c2ccccc2)CC1 [Diphenylpyraline hydrochloride]	inactive: -0.243
Clc1ccc(Nc2nnc(Cc3ccncc3)c3ccccc23)cc1 [Vatalanib]	inactive: 0.814
O=c1[nH]cnc2c1ncn2[C@H]1CC[C@@H](CO)O1 [Didanosine]	inactive: 0.3
CN(C/C=C/C#CC(C)(C)C)Cc1cccc2ccccc12 [Terbinafine]	inactive: -1.01
Fc1ccc([C@@H]2CCNC[C@H]2COc2ccc3c(c2)OCO3)cc1 [Paroxetine Hydrochloride]	inactive: -1.43
Nc1nc(O)c2ncn(CCC(CO)CO)c2n1 [Penciclovir]	inactive: -1.4
C[C@H]1COc2c(N3CCN(C)CC3)c(F)cc3c(=O)c(C(=O)O)cn1c23 [Levofloxacin]	inactive: 0.119
NC(CO)C(=O)NNCc1ccc(O)c(O)c1O (stereo unspecified) [Benserazide hydrochloride]	inactive: -0.896
CCCC(=O)OCOC(=O)C1=C(C)NC(C)=C(C(=O)OC)C1c1cccc(Cl)c1Cl (stereo unspecified) [Clevidipine]	inactive: 1.42
NCCC[C@H](N)CC(=O)N[C@H]1CNC(=O)[C@H]([C@H]2C[C@H](O)NC(N)=N2)NC(=O)/C(=C/NC(N)=O)NC(=O)[C@H](CO)NC(=O)[C@H](CO)NC1=O [Viomycin sulfate]	inactive: -0.169
O=C1c2cccc3c2[C@H](CCC3)CN1[C@@H]1CN2CCC1CC2 [Palonosetron hydrochloride]	inactive: -1.66
O=C1Nc2ccccc2C1(c1ccc(O)cc1)c1ccc(O)cc1 [Oxyphenisatin]	inactive: 1.08
NCC[C@H](O)C(=O)N[C@@H]1C[C@H](N)[C@@H](O[C@H]2O[C@H](CN)[C@@H](O)[C@H](O)[C@H]2O)[C@H](O)[C@H]1O[C@H]1O[C@H](CO)[C@@H](O)[C@H](N)[C@H]1O [Amikacin hydrate]	inactive: 0.105
O=C(O)CSCC(=O)NC1CCSC1=O (stereo unspecified) [Erdosteine]	inactive: -0.512
Cc1nc2n(c(=O)c1CCN1CCC(c3noc4cc(F)ccc34)CC1)CCCC2O (stereo unspecified) [Paliperidone]	inactive: -0.0254
CCN(CC)CCNC(=O)COc1ccc(OC)cc1 [Mefexamide hydrochloride]	inactive: -0.0205
Clc1ccc(C(Cn2ccnc2)OCc2csc3c(Cl)cccc23)c(Cl)c1 (stereo unspecified) [Sertaconazole nitrate]	inactive: 0.206
CCOc1ccc(NC(=O)CC(C)O)cc1 (stereo unspecified) [Bucetin]	inactive: -0.145
CC(=O)OCC1=C(C(=O)O)N2C(=O)[C@@H](NC(=O)Cc3cccs3)[C@H]2SC1 [Cephalothin sodium salt]	inactive: -0.486
CCCCc1nc(Cl)c(CO)n1Cc1ccc(-c2ccccc2-c2nnn[nH]2)cc1 [Losartan]	inactive: 1.02
CC1(C)S[C@@H]2[C@H](NC(=O)Cc3ccccc3)C(=O)N2[C@H]1C(=O)O [Benzathine benzylpenicillin]	inactive: 0.455
CC1(C)S[C@@H]2[C@H](NC(=O)Cc3ccccc3)C(=O)N2[C@H]1C(=O)O [Benzylpenicillin sodium]	inactive: 0.664
